Results published in the RNAGym collection of RNA variant scans (doi:10.1093/nar/gkz1192).
The source gives no read counts; variants with many changes may rest on few reads.

B1: CPEB3 Ribozyme (parent)
chain: UAACAGGGGGCCACAGCAGAAGCGUUCACGUCGCAGCCCCUGUCAGAUUCUGGUGAAUCUGCGAAUUCUGCUGUAUAUCUC

Variants of: B1
Assay: self-cleavage, relative activity (ratio to wild type); higher = more cleavage; in vitro, sequencing
Summary of the method: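 Relative activity compares each variant's cleaved/total read fraction with that of the unmutated ribozyme. To get these fractions, barcoded CPEB3 ribozyme libraries from rounds of error-prone PCR were transcribed with T7 RNA polymerase for 5 hours at 37°C and then given 15 min of DNase I treatment before EDTA was added. The RNAs were reverse transcribed with template switching and sequenced on Illumina, and DNA sequencing linked barcodes to variants. A minimum of 5 reads applied, and three batches were averaged.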

Row | Variant | self-cleavage
1 | UAACAGGGGGCCACAGCAGAAGCGUUCACGUCGGAGCCCCUGUCAGAUCCCGGUGAAUCUGCGAAUUCUGCUGUAUAUCUC [C34G U49C U51C] | 0.16
2 | UAACAGGGGGCCACAGCAGAAGCGUUCACGUCGGAGCCCCUGUCAGAUUCUGGUGAAUCUGCGAAUUCCGCUGCAUAUCUC [C34G U69C U74C] | 0.2
3 | UAACAGGGGGCCACAGCAGAAGCGUUCACGUCGUGGCCCCUGUCAGAUUCUGGUUAAUCUGCGAAUUCCGCUGUACAUCUC [C34U A35G G55U U69C U76C] | 0.13
4 | UAACAGGGGGCCACAGCAGAAGCGUUCACGUCGUUGCCACUGUCAGAUUCUGGUGAAUCUGCGGAUUCUGCUGUAUAUCUC [C34U A35U C39A A64G] | 0.1
5 | UAACAGGGGGCCACAGCAGAAGCGUUCACGUCGUUGCCCCAGUCAGAUUCUGGUGAAUCUGCGAAUUCUGCUGUAUAUCUC [C34U A35U U41A] | 0.21
6 | UAACAGGGGGCCACAGCAGAAGCGUUCACGUCGUAGCCCCUGUCUGAUUCUGGUGAGUCUGCGAAUUCUGCUGUAUAUCUC [C34U A45U A57G] | 0.16
7 | UAACAGGGGGCCACAGCAGAAGCGUUCACGUCGUAGCCCCUGUCAGGUUCUGGUGAGUCUGCGAAUUCUGCUGUAUAUCUC [C34U A47G A57G] | 0.16
8 | UAACAGGGGGCCACAGCAGAAGCGUUCACGUCGUAGCCCCUGUCAGGUUCUGGUGAUUCUGCGAAUUCUGCUGUAUAUCUC [C34U A47G A57U] | 0.15
9 | UAACAGGGGGCCACAGCAGAAGCGUUCACGUCGUAGCCCCUGUCAGAUUCUGGUGGAUCUGAGAAUUCUGCUGUAUAUCUC [C34U A56G C62A] | 0.1
10 | UAACAGGGGGCCACAGCAGAAGCGUUCACGUCGUAGCCCCUGUCAGAUUCUGGUGUUUCUGCGAAUUCUGCAGUAUAUCCC [C34U A56U A57U U72A U80C] | 0.1
11 | UAACAGGGGGCCACAGCAGAAGCGUUCACGUCGUAGCCCCUGUCAGAUUCUGGUGAAUCUGCGAGUUCUGCCGUAUAUCUC [C34U A65G U72C] | 0.16
12 | UAACAGGGGGCCACAGCAGAAGCGUUCACGUCGUAGCCACUGUCAGAUUCUGGUGAGUCUGCGGAUUCUGCUGUAAAUCUC [C34U C39A A57G A64G U76A] | 0.05
13 | UAACAGGGGGCCACAGCAGAAGCGUUCACGUCGUAGCCGCUGUCAGAUUCUGGUGAAUCCGCGAAUUCUGCUGUAUAUCUC [C34U C39G U60C] | 0.06
14 | UAACAGGGGGCCACAGCAGAAGCGUUCACGUCGUAGCCCGUGUCUGAUACUGGUGAAUCUGCGAAUUCUGCUGUAUAUCUC [C34U C40G A45U U49A] | 0.09
15 | UAACAGGGGGCCACAGCAGAAGCGUUCACGUCGUAGCCCGUGCCUGAUACUGGCGAAUCUGCGAAUUCUGCUGUAUAUCUC [C34U C40G U43C A45U U49A U54C] | 0.07
16 | UAACAGGGGGCCACAGCAGAAGCGUUCACGUCGUAGCCCCUGUUAGAUUCUGGCGAAUCUGCGAAUUCUGCUGUAUAUCUC [C34U C44U U54C] | 0.13
17 | UAACAGGGGGCCACAGCAGAAGCGUUCACGUCGUAGCCCCUGUCAGAUUCUGAUGGAUCUGCGAAUUCUGCUGUAUAUCUC [C34U G53A A56G] | 0.42

Row | Variant | self-cleavage
18 | UAACAGGGGGCCACAGCAGAAGCGUUCACGUCGUAGCCCCUGUCAGAUUCUGGUGAAUCUGCUAAUUCUGCUGUAUAGCUC [C34U G63U U78G] | 0.75
19 | UAACAGGGGGCCACAGCAGAAGCGUUCACGUCGUAGCCCCAGUCAGAUUCAGGUGAAUCUGCGAAUUCCGCUGUAUAUCUC [C34U U41A U51A U69C] | 0.06
20 | UAACAGGGGGCCACAGCAGAAGCGUUCACGUCGUAGCCCCAGUCAGAUUCUGGUGAAACAGCGAAUUCUGCUGUAUCUCUC [C34U U41A U58A U60A A77C] | 0.08
21 | UAACAGGGGGCCACAGCAGAAGCGUUCACGUCGUAGCCCCCGUCAGAUUCUGGUGAAUCUGCGGAUUCUGCUGUAUACCAC [C34U U41C A64G U78C U80A] | 0.15
22 | UAACAGGGGGCCACAGCAGAAGCGUUCACGUCGUAGCCCCCGUCAGAUUCUGGUGAAUCUGCGAGUUCUGCUGCAUAUCUC [C34U U41C A65G U74C] | 0.12
23 | UAACAGGGGGCCACAGCAGAAGCGUUCACGUCGUAGCCCCCGUCAGAUUCUGGUGAAUCUGCGAAUUCUGCUGUGUAUCUC [C34U U41C A75G] | 0.42
24 | UAACAGGGGGCCACAGCAGAAGCGUUCACGUCGUAGCCCCCGUCAGAUUCCGGUGAAUCUGCGAAUUCAGCUGUAUAUCUC [C34U U41C U51C U69A] | 0.08
25 | UAACAGGGGGCCACAGCAGAAGCGUUCACGUCGUAGCCCCGGUCAGAUCCUGGUGAAUCUGCGAAUUCUGCUGUAUAUCUC [C34U U41G U49C] | 0.17
26 | UAACAGGGGGCCACAGCAGAAGCGUUCACGUCGUAGCCCCUGACAGAUUCUGGUGUAUCUGCGAAUUCUGCUGUAUAUCUC [C34U U43A A56U] | 0.22
27 | UAACAGGGGGCCACAGCAGAAGCGUUCACGUCGUAGCCCCUGCCAGAUUCUGGUGAAUCUGCGAGUUCUGCCGUAUAUCUC [C34U U43C A65G U72C] | 0.09
28 | UAACAGGGGGCCACAGCAGAAGCGUUCACGUCGUAGCCCCUGCCAGAUUCUGGUGAAUCUGCGAAUUCUGCUGUAUCUCUC [C34U U43C A77C] | 0.11
29 | UAACAGGGGGCCACAGCAGAAGCGUUCACGUCGUAGCCCCUGUCAGACUCUGGUGAAUCUGCGAAUUCUGCUGUAUACCUC [C34U U48C U78C] | 0.07
30 | UAACAGGGGGCCACAGCAGAAGCGUUCACGUCGUAGCCCCUGUCAGAUCCUGGUGUAUCUGUGAAUUCUGCUGCAUAUCUC [C34U U49C A56U C62U U74C] | 0.11
31 | UAACAGGGGGCCACAGCAGAAGCGUUCACGUCGUAGCCCCUGUCAGAUCCUGGUGAACCAGCGAAUUCUGCCGUAUAUCUC [C34U U49C U58C U60A U72C] | 0.1
32 | UAACAGGGGGCCACAGCAGAAGCGUUCACGUCGUAGCCCCUGUCAGAUCCUGGUGAAUCUGCGAAUUCCGCUGUAUAUCUC [C34U U49C U69C] | 0.05
33 | UAACAGGGGGCCACAGCAGAAGCGUUCACGUCGUAGCCCCUGUCAGAUUCUGGAGAAUCUGCGAAUUCUGCUGUAUAUCCC [C34U U54A U80C] | 0.61
34 | UAACAGGGGGCCACAGCAGAAGCGUUCACGUCGUAGCCCCUGUCAGAUUCUGGUGAAUCCGCGAAUUCCGCUGUACAUCUC [C34U U60C U69C U76C] | 0.09
